# Data taken from PubChem BioAssay AID624418 (National Center for Advancing Translational Sciences (NCATS), 2012).
# About 530 (0.13%) of roughly 410,000 compounds were called active. The shares of active, inactive and inconclusive entries below differ from those in the screen. Calls follow the shape of the dose curve; as a rule, active = well fitted inhibition curve with a large enough effect; inconclusive = small, poorly fitted or top-dose-only effect, or another doubt; inactive = no such curve, though single readings can be large or run the other way. Potencies of inconclusive entries are doubtful fits and often do not repeat.
# Assay: qHTS of GLP-1 Receptor Inverse Agonists: Cytotox Screen
# Conditions: HEK293 cAMP-luciferase reporter cells, luminescence, 24 h; activity change, negative = inhibition: at 38.3 µM (top of the series) unless noted
# How it was run: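 Seeding density was 200 cells/uL; after overnight-length (12 h) culture, 23 nL compounds went on for 24 h at 37 °C. Readout used a luciferase detection reagent, luminescence taken after 12 min at room temperature.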
# % is scaled to controls: 0 for no effect and ±100 for the full control effect; potency is read from the fitted curve at half-maximal effect.
Structure (SMILES),"activity change, negative = inhibition",Potency
CN1CCN(c2ccc([N+](=O)[O-])c3no[n+]([O-])c23)CC1,inconclusive: -102% [inhibitor],–
Cc1ccc(Nc2c(-c3ccccn3)nc3cc(C)ccn23)cc1,–,"inconclusive: 14.1 µM [inhibitor, partial curve, poor fit]"
COc1cc2c(cc1OC)CN(C(=O)CCOc1ccccc1C)CC2,–,"inconclusive: 28.2 µM [inhibitor, single point]"
CCOP(=O)(OCC)C(NC(=O)C(C)C)C(Cl)(Cl)Cl (configuration not stated),inactive: -2.47%,–
CC(C)Oc1cc(-n2c(=S)[nH]c3ccccc3c2=O)c(Cl)cc1Cl,–,"inconclusive: 20 µM [inhibitor, single point]"
Cc1ccc([C@H]2C[C@@H](n3cc(C4CC4)nn3)[C@H](O)CN2CC2CCCCC2)cc1,inactive: 6.46%,–
COc1ccc(NCc2nc3ccccc3n2CCOc2ccc(C)cc2)cc1,inactive: -23%,–
CC(C)n1cc(NC(=O)c2cc(-c3ccccc3)on2)cn1,–,"inconclusive: 1.78 µM [inhibitor, full curve]"
CC(NCc1ccc(Cl)cc1Cl)C(O)c1ccccc1 (configuration not stated),inactive: 11.2%,–
COc1cccc(C(c2nnnn2-c2c(C)cccc2C)N2CCC(n3c(=O)[nH]c4ccccc43)CC2)c1OC (configuration not stated),–,"inconclusive: 14.1 µM [inhibitor, single point]"
CCOC(=O)CC1c2ccccc2-n2nncc2CN1C (configuration not stated),inactive: -5.38%,–
Cc1ccc(Sc2ccc(/C=N/O)cc2[N+](=O)[O-])cc1,–,"inconclusive: 11.2 µM [inhibitor, single point]"
CNC(=O)Oc1cccc(-c2cn3cc(Cl)ccc3n2)c1,inactive: -0.336%,–
O=C1NC(=O)N(c2ccc(Cl)cc2)C(=O)/C1=C\c1ccc(Sc2nc3ccccc3[nH]2)o1,–,"inconclusive: 10 µM [inhibitor, single point]"
CN1C2CCC1CC(OC(c1ccccc1)c1ccccc1)C2 (configuration not stated),–,"inconclusive: 28.2 µM [inhibitor, single point]"
Cc1cc([N+](=O)[O-])c2ccccc2[n+]1[O-],–,"inconclusive: 5.62 µM [inhibitor, full curve, poor fit]"
O=C(C1CCC(CNc2nc(=S)[nH]c3ccccc23)CC1)N1CCN(c2ccc(F)cc2)CC1 (configuration not stated),–,"inconclusive: 11.2 µM [inhibitor, single point]"
Nc1ccccc1C(=O)c1ccccc1,inactive: 8.22%,–
Fc1ccc(NC(=S)Nc2ccccc2OC(F)F)cc1Cl,–,"inconclusive: 28.2 µM [inhibitor, single point]"
Cn1c(O)c(/C=N/Nc2ccccc2)c(=O)n(C)c1=O,–,"inconclusive: 11.2 µM [inhibitor, partial curve, poor fit]"
COc1cc(C2NCc3ccccc3-n3cccc32)ccc1O (configuration not stated),inactive: -27%,–

Structure (SMILES),"activity change, negative = inhibition",Potency
CCOC(=O)C1=C(NC(=S)NC(=O)c2ccccc2)c2ccccc2CC12CCCC2,–,"inconclusive: 12.6 µM [inhibitor, single point]"
CCOC(=O)[C@]12Cc3cc(OC)ccc3[C@H]1N(C)C(=O)c1cc(OC)ccc12,inactive: -11.3%,–
Cc1ccc(-n2c(O)c(/C=N/Nc3ccccc3)c(=O)[nH]c2=O)cc1C,–,"inconclusive: 11.2 µM [inhibitor, single point]"
O=C(N/N=C/C=C\c1ccccc1[N+](=O)[O-])c1cc(-c2ccc3ccccc3c2)n[nH]1,–,"inconclusive: 10 µM [inhibitor, partial curve, poor fit]"
CC/C(CC(c1ccccc1)c1c(O)c2ccccc2oc1=O)=N\NC(N)=S (configuration not stated),–,"inconclusive: 31.6 µM [inhibitor, partial curve, poor fit]"
N#Cc1c([N+](=O)[O-])cc([N+](=O)[O-])cc1S(=O)(=O)Cc1ccccc1,–,"inconclusive: 11.2 µM [inhibitor, partial curve, poor fit]"
Cc1c(C(=O)c2cccc3ccccc23)c2cccc3c2n1[C@H](CN1CCOCC1)CO3,–,"inconclusive: 28.2 µM [inhibitor, single point]"
CCN(CC)c1ccc(/C=C2\SC(=O)N(C(C)C)C2=O)o1,–,"inconclusive: 11.2 µM [inhibitor, partial curve, poor fit]"
CC[n+]1c(/C=C/C=C/N(C(C)=O)c2ccccc2)sc2cc(OC)ccc21,–,"inconclusive: 12.6 µM [inhibitor, partial curve, poor fit]"
C=CCN1C(=O)C2(C(C(=O)OCC)=C(N)Oc3ccccc32)C2=C1CCCC2=O (configuration not stated),inactive: -6.64%,–
CCN1CCN(C(=O)COc2ccc3oc4c(c3c2)CCCC4)CC1,–,"inconclusive: 14.1 µM [inhibitor, partial curve, poor fit]"
CCN1CCN(c2cc(N3CCCC3)c(F)cc2[N+](=O)[O-])CC1,–,"inconclusive: 14.1 µM [inhibitor, single point]"
CC(C)(C)c1ccc(O)c(N=Cc2c(O)ccc3ccccc23)c1,–,"inconclusive: 12.6 µM [inhibitor, single point]"
CCOC(=O)c1ccc(N2C(=O)c3n[nH]c(-c4cccs4)c3C2c2ccc(CC)cc2)cc1 (configuration not stated),–,"inconclusive: 22.4 µM [inhibitor, single point]"
O=c1[nH]c(=O)n(-c2ccccc2)c(O)c1N=Nc1ccc(Br)cc1,–,"inconclusive: 8.91 µM [inhibitor, single point]"
Cn1c(N)c(C(=O)COC(=O)c2cc(S(=O)(=O)N3CCOCC3)ccc2F)c(=O)n(C)c1=O,–,"inconclusive: 28.2 µM [inhibitor, single point]"
CN1CCN(c2ccc(/C=C3\C(=O)NC(=S)N(c4cccc(Br)c4)C3=O)o2)CC1,–,"inconclusive: 10 µM [inhibitor, partial curve, poor fit]"
Oc1cc2c(cc1CN1CCN(c3ccccc3)CC1)CCC2,inactive: 4.43%,–
O=c1c2cc(NC(=S)NCCCN3CCC(Cc4ccccc4)CC3)ccc2nc2n1CCCCC2,–,"inconclusive: 12.6 µM [inhibitor, partial curve, poor fit]"
CC1(C)CN=C(Nc2nc3ccccc3s2)S1,–,"inconclusive: 28.2 µM [inhibitor, single point]"
NS(=O)(=O)c1ccc(Nc2c([N+](=O)[O-])cncc2[N+](=O)[O-])cc1,–,"inconclusive: 10 µM [inhibitor, single point]"

Structure (SMILES),"activity change, negative = inhibition",Potency
CCC1CCCCN1S(=O)(=O)c1ccc(C(=O)N(CCCN(C)C)c2nc3cc4c(cc3s2)OCO4)cc1 (configuration not stated),–,"inconclusive: 10 µM [inhibitor, partial curve, poor fit]"
CCOc1ccc(C(C)=O)cc1COC(=O)c1ccc2c(c1)NC(=O)CS2,–,"inconclusive: 28.2 µM [inhibitor, single point]"
CCN1CCN(c2ncc(C(=O)Nc3cc(Cl)ccc3OC)c3ccccc23)CC1,–,"inconclusive: 11.2 µM [inhibitor, single point]"
CCN(CC)CCNc1ccc(CO)c2oc3ccccc3c(=O)c12,–,"inconclusive: 28.2 µM [inhibitor, single point]"
O=C1NCN(c2ccccc2)C12CCN(C(CCc1ccccc1)c1nnnn1Cc1ccccc1)CC2 (configuration not stated),–,"inconclusive: 12.6 µM [inhibitor, single point]"
CCC(CO)Nc1ccc([N+](=O)[O-])c2cccnc12 (configuration not stated),–,"inconclusive: 12.6 µM [inhibitor, partial curve, poor fit]"
CCN1CCN(Cc2ccc(NC(=O)c3ccc(C)c(NC(=O)C(=O)c4c[nH]c5ccccc45)c3)cc2C(F)(F)F)CC1,–,"inconclusive: 28.2 µM [inhibitor, single point]"
O=c1c2cc([N+](=O)[O-])cc([N+](=O)[O-])c2[nH]n1-c1ccccc1,–,"inconclusive: 11.2 µM [inhibitor, partial curve, poor fit]"
CCOc1ccc(Nc2nc(N)c(C(=O)c3ccccc3Cl)s2)cc1,–,"inconclusive: 10 µM [inhibitor, partial curve]"
CN(Cc1ccccc1)C(=O)c1ccc(Nc2nc(C(N)Cc3ccc(C(F)(F)F)cc3)cs2)nc1 (configuration not stated),–,"inconclusive: 28.2 µM [inhibitor, single point]"
CC(NC(=O)Cn1c(=O)oc2cc(S(=O)(=O)N3CCCC3)ccc21)c1ccccc1 (configuration not stated),–,"inconclusive: 0.501 µM [inhibitor, full curve, poor fit]"
CN1CCN(C(=O)CCN2C(=O)/C(=C/c3cccc(Br)c3)SC2=S)CC1,–,"inconclusive: 11.2 µM [inhibitor, partial curve, poor fit]"
O=C1N[C@H](Cc2c[nH]c3ccccc23)COC(=O)[C@H](Cc2ccc(F)cc2)C/C=C\C[C@H]1CC(=O)N(CCO)Cc1ccccc1,inactive: -58.3%,–
O=C(C(=O)N1CCOCC1)c1cn(Cc2ccccc2Cl)c2ccccc12,–,"inconclusive: 3.16 µM [inhibitor, partial curve, poor fit]"
CN1C(=O)NC(=O)/C(=C/c2ccc([N+](=O)[O-])s2)C1=O,–,"inconclusive: 22.4 µM [inhibitor, single point]"
CCOC(=O)C1CCN(/C=C2/C(=O)NC(=O)N(Cc3ccco3)C2=O)CC1,inactive: -1.24%,–
C#CCOCCOCCOCCNc1nc(N2CCN(C(=O)CCCCCCCCCCNC(=O)Cn3cc(C[C@@H](C)O)nn3)CC2)nc(N2CCN(C(=O)CCCCCCCCCCNC(=O)[C@H](CCCCN)n3cc(C[C@@H](C)CC)nn3)CC2)n1,–,"inconclusive: 28.2 µM [inhibitor, single point]"
Fc1ccc(CCNCc2cccc(Cl)c2)cc1,inactive: -1.96%,–
COc1cc(CN2CCN(C(=O)COc3ccccc3)CC2)cc(OC)c1OC,inactive: 5.18%,–
O=C(Nc1ccc(-c2cn3ccsc3n2)cc1)c1ccc(F)c(S(=O)(=O)N2CCOCC2)c1,–,"inconclusive: 28.2 µM [inhibitor, single point]"
